Results: PubChem BioAssay AID1671194 (National Center for Advancing Translational Sciences (NCATS), 2021)
The whole screen tested about 140,000 compounds, of which about 240 (0.17%) were called active. The inconclusive results got no clear call from the source; some entries with a clear call stand among them for comparison. Calls follow the shape of the dose curve; as a rule, active = well fitted inhibition curve with a large enough effect; inconclusive = small, poorly fitted or top-dose-only effect; inactive = no such curve, though single readings can be large or run the other way. Potencies beside an inconclusive call are fits to weak or partial responses and may not hold up.

Assay: Primary qHTS assay for inhibitors of alpha-synuclein gene (SNCA) expression; also: nearly all actives have a fitted effect of over 45% in size
Conditions: HEK-293 SNCA-luciferase knock-in, luminescence, 24 h; series mostly up to 57.2 µM
Potency is read from the fitted curve at half-maximal effect; tags tell the direction and shape of the fitted curve.

| Structure (SMILES) | Potency |
| --- | --- |
| CN(C(=O)[C@@H]1C[C@@H](c2ccc(F)cc2)N(CCOc2ccccc2)C1)c1cccnc1 | inconclusive: 14.1 µM [inhibitor, partial curve, poor fit] |
| CCc1nc(-c2ccc(OC3CCN(C(=O)C4CC4)C3)cc2)no1 (centres undefined) | inactive |
| c1ccc(CCc2nc3nccc(-c4ccco4)n3n2)cc1 | inactive |
| CN(Cc1ccccc1)S(=O)(=O)c1ccc(NC(=O)c2cc(=O)c3ccccc3o2)cc1 | inconclusive: 1 µM [inhibitor, full curve] |
| COc1ccc(C(=O)CC2(O)C(=O)N(Cc3cccc(C(F)(F)F)c3)c3ccccc32)cc1 (centres undefined) | inconclusive: 39.8 µM [inhibitor, single point] |
| CCOc1ccc(CC(=O)N2CCN(c3cc(-c4ccc(OC)cc4)[nH]n3)CC2)cc1 | inactive |
| CCOC(=O)c1cccc(NC(=O)c2oc3c(c2C)-c2nn(CC)cc2CC3)c1 | inactive |
| CC(C)Oc1cccc(-c2nc(C(=O)Nc3ccc(F)cc3)cs2)c1 | inactive |
| COc1ccc(-c2cc(C(=O)NCc3ccccc3)c3cnn(C)c3n2)cc1 | inactive |
| Fc1ccc(Cc2nc(-c3nnn4c3COC(c3ccc(Cl)cc3)C4)no2)cc1 (centres undefined) | inconclusive: 3.55 µM [inhibitor, single point] |
| O=C(CCc1ccccc1)N1CCOCC12CCN(Cc1ccccc1)CC2 | inconclusive: 35.5 µM [inhibitor, partial curve, poor fit] |
| O=C(NC1CCN(c2cc(-c3ccc(F)cc3)[nH]n2)C1)c1ccc(Br)o1 (centres undefined) | inactive |
| Cc1ccc(NC(=O)c2cc3n(n2)CC(c2ccc(Cl)cc2)OC3)cc1C (centres undefined) | inconclusive: 17.8 µM [inhibitor, partial curve, poor fit] |
| COc1ccc(-c2cnc(C)o2)cc1S(=O)(=O)Nc1ccc(OC(F)(F)F)cc1 | inconclusive: 39.8 µM [inhibitor, single point] |
| C#CCN(C)C(=O)[C@@H]1CCCN1[C@@H](C(=O)NC)c1ccccc1 | inconclusive: 15.8 µM [inhibitor, partial curve] |
| C#CCn1c(=O)n(-c2cccc(Cl)c2C)c(=O)c2c3c(sc21)CN(C(C)=O)CC3 | active: 3.98 µM |
| CC(=O)Nc1ccccc1-c1c(C)nn2c1N(C(=O)c1ccc(Oc3ccccc3)cc1)CCC2 | inconclusive: 15.8 µM [inhibitor, partial curve, poor fit] |
| COc1ccccc1OCC(=O)c1ccc2c(c1)N(CC(=O)N(C)Cc1ccccc1)C(=O)CO2 | inactive |
| O=C1N(c2cccc(F)c2)C(c2ccccc2)C12CCN(Cc1cccc(F)c1O)CC2 (centres undefined) | inactive |
| O=S(=O)(Cc1ccccc1)NC[C@H]1Cn2c(-c3ccc(Cl)cc3)cnc2CO1 | inconclusive: 56.2 µM [inhibitor, single point] |
| O=C(NCCc1noc(-c2ccncc2)n1)c1n[nH]c2c1CCCCCC2 | inconclusive: 3.55 µM [inhibitor, partial curve, poor fit] |
| COC[C@H](NC(=O)c1cnc(C)s1)C(=O)N[C@@H](COC)C(=O)N[C@@H](Cc1ccccc1)C(=O)[C@@]1(C)CO1 | inconclusive: 0.0607 µM [inhibitor, full curve] |

| Structure (SMILES) | Potency |
| --- | --- |
| O=C(NCc1c[nH]c2ncccc12)c1ccccn1 | inconclusive: 31.6 µM [inhibitor, partial curve, poor fit] |
| CC(C)Cn1c(=O)c(C(=O)N2CCN(C(=O)C3CCCC3)CC2)nc2cccnc21 | inactive |
| O=C(Cn1ncn2c(cc3ccccc32)c1=O)NCc1ccc(F)cc1 | inconclusive: 22.4 µM [inhibitor, partial curve, poor fit] |
| COCCOC1CCOC2(CCN(S(=O)(=O)c3ccc(F)cc3)CC2)C1 (centres undefined) | inactive |
| O=C(NCc1ccc(-c2ccc(F)cc2)o1)C1CC(=O)N(Cc2cccnc2)C1 (centres undefined) | inactive |
| NS(=O)(=O)c1ccc(CNc2nccc(-c3cccnc3)n2)cc1 | inconclusive: 31.6 µM [inhibitor, single point] |
| CC(C)(Oc1nn(Cc2cccc(Cl)c2)c2ccccc12)C(=O)Nc1cccnc1 | inconclusive: 56.2 µM [inhibitor, single point] |
| Cc1ccc2[nH]c(=O)c3cc(C(=O)NCCCN4CCC(C)CC4)sc3c2c1 | inconclusive: 39.8 µM [inhibitor, single point] |
| O=C(Cc1ccc(F)cc1)N1CCC2(CC1)CN(Cc1ccccc1)CC2CO (centres undefined) | inconclusive: 14.1 µM [inhibitor, partial curve, poor fit] |
| COCCOCc1nc(C2CCN(C(=O)CCc3ccccc3)C2)no1 (centres undefined) | inactive |
| COc1cccc(-c2[nH]cnc2-c2ccccc2)c1OCCCn1ccnc1 | inconclusive: 1.26 µM [inhibitor, full curve, poor fit] |
| Fc1ccc(CN2CCNc3cc(Nc4ccccc4)ncc3C2)cc1F | inconclusive: 12.6 µM [inhibitor, single point] |
| Cc1ccc(-c2cc3c(=O)n(CCNC(=O)C4CCCCC4)ccn3n2)cc1C | inactive |
| CCOC(=O)c1c(NC(=O)COc2cccc(C)c2C)sc2c1CCC(CC)C2 (centres undefined) | inconclusive: 31.6 µM [inhibitor, single point] |
| CC(C)(C)OC(=O)N1CCC(c2c(C(=O)NCCc3ccccc3)cnn2-c2ccc(F)cc2F)CC1 | inconclusive: 39.8 µM [inhibitor, single point] |
| CCC1(N2CCN(S(=O)(=O)c3cc(F)cc(F)c3)CC2)CCN(C(=O)NC)C1 (centres undefined) | inconclusive: 6.31 µM [inhibitor, single point] |
| CCCCS(=O)(=O)c1oc(-c2ccc(F)cc2)nc1S(=O)(=O)c1ccc(C)cc1 | inconclusive: 39.8 µM [inhibitor, single point] |
| Cc1noc(C)c1C(=O)N1Cc2ccccc2CC2(CCCCN2C)C1 (centres undefined) | inconclusive: 22.4 µM [inhibitor, partial curve] |
| COc1cc2c(-c3ccccc3)c(C)oc2cc1CN1CCC2(CC1)C(=O)N(C(C)C)C(=O)N2C | inconclusive: 39.8 µM [inhibitor, single point] |
| Cc1cccc(NC(=O)CCS(=O)(=O)c2cc(Br)cc3c2N(C(=O)C2CC2)CC3)c1 | inconclusive: 1.41 µM [inhibitor, full curve] |
| CC(C)(C)c1ccc(C(=O)NCC(c2ccc(Cl)cc2)N2CCOCC2)cc1 (centres undefined) | inconclusive: 15.8 µM [inhibitor, single point] |
| Cc1ccc(CNC(=O)CC2Oc3ccc(Cl)cc3NC2=O)cc1 (centres undefined) | inconclusive: 39.8 µM [inhibitor, single point] |

| Structure (SMILES) | Potency |
| --- | --- |
| Cc1cccc(NC(=O)c2cc3n(n2)CC(c2ccc(Cl)cc2)OC3)c1 (centres undefined) | inactive |
| COCC1CN(C2CCC2)CC12CCN(C(=O)c1nccn1C)CC2 (centres undefined) | inconclusive: 39.8 µM [inhibitor, single point] |
| c1ccc(Oc2ccc(Nc3cnc4ccc(N5CCOCC5)nn34)cc2)cc1 | inconclusive: 8.91 µM [inhibitor, partial curve, poor fit] |
| Cc1cccc(NC(=O)c2ccc3c(c2)N(C)C2CCCCCN2C3=O)c1 (centres undefined) | inactive |
| CN(C)c1ccc(C(=O)N[C@H]2CO[C@H]3[C@@H]2OC[C@@H]3n2cc(COc3ccccc3)nn2)cc1 | inactive |
| COc1ccccc1C(=O)Nc1ccc2oc(-c3cccc4c(Br)cccc34)nc2c1 | inactive |
| COc1ccc(CCC(=O)N2CCOc3ccc(N4CCCC4)cc3C2)cc1 | inconclusive: 3.55 µM [inhibitor, single point] |
| Cc1cccc(NC(c2ccccc2F)c2ccc3ccc(C)nc3c2O)n1 (centres undefined) | inconclusive: 10 µM [inhibitor, partial curve, poor fit] |
| COc1ccc(C(=O)NCC(c2ccc(N(C)C)cc2)N2CCc3ccccc32)cc1OC (centres undefined) | inconclusive: 39.8 µM [inhibitor, single point] |
| Cc1ccc(NC(=O)c2ccc3c(O)c(S(=O)(=O)c4ccccc4)c(=O)[nH]c3c2)cc1Cl | inconclusive: 28.2 µM [inhibitor, single point] |
| O=C1N(Cc2ccccc2)c2ccccc2C12CCN([S+](=O)([O-])c1ccccc1)C2 (centres undefined) | inconclusive: 15.8 µM [inhibitor, single point] |
| CC1CCCCN1CC(=O)N1CCCc2c1c(=O)oc1ccc(OCc3ccccc3)cc21 (centres undefined) | inconclusive: 35.5 µM [inhibitor, partial curve, poor fit] |
| Cn1cccc1C(=O)N1CCC(n2cc(-c3nc(-c4ccccc4)no3)nn2)CC1 | inactive |
| Cc1ccc(S(=O)(=O)c2c(Nc3cccc(Cl)c3)sc(C(=O)c3ccc4c(c3)OCO4)c2N)cc1 | inconclusive: 39.8 µM [inhibitor, partial curve, poor fit] |
| Cc1ccc(N2CCN(C(=O)C3CC(=O)N(c4n[nH]c5cccc(F)c45)C3)CC2)c(C)c1 (centres undefined) | inconclusive: 4.47 µM [inhibitor, partial curve] |
| Cc1csc(NC(=O)C2CC(=O)N(c3n[nH]c4cccc(F)c34)C2)n1 (centres undefined) | inconclusive: 3.16 µM [inhibitor, single point] |
| C=CCC(O)(CC=C)C(C)NC(=O)c1ccc(OC2CCN(Cc3ccccn3)CC2)cc1 (centres undefined) | inconclusive: 3.55 µM [inhibitor, full curve] |
| COC(=O)[C@@H]1Cc2ncn(Cc3ccc(Cl)cc3)c2CN1Cc1cccnc1 | inconclusive: 28.2 µM [inhibitor, single point] |
| Cn1ccc2c(C(=O)NCc3cccnc3)nc(-c3ccccc3C(F)(F)F)cc21 | inactive |
| CCCCN(CC)C(=O)Nc1ccc2c(c1)N(C)C(=O)c1ccccc1S2 | inactive |
